{"source": "the supplement of paper PMC3334620", "note": "Over roughly 33,000 sequences, “E-score (-0.5 to 0.5)” has its median near -0.032; the highest 2% begin near 0.36. The list shows a part of the results.", "data": [{"target": "T1, Sko1 (UniProt Q02100)", "T1 sequence": "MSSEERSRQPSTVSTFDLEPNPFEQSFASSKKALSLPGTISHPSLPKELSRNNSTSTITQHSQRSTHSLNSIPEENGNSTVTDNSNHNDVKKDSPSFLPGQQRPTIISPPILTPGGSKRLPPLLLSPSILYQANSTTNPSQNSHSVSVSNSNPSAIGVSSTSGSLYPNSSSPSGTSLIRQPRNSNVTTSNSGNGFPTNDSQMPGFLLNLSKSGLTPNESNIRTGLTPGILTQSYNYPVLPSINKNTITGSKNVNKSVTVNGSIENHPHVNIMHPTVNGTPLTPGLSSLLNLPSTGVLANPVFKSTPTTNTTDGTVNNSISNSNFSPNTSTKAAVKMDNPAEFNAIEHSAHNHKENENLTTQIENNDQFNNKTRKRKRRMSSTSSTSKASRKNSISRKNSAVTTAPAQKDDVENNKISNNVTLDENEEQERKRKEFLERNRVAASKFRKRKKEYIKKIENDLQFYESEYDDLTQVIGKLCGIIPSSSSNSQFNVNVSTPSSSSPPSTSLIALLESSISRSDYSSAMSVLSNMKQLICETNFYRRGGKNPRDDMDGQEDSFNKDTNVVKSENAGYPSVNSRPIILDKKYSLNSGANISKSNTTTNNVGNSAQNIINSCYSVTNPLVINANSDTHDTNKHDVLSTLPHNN", "assay": "PBM E-score (8-mer binding enrichment) (E-score (-0.5 to 0.5)); higher = stronger / more preferred TF binding; most listed sequences are background and not binding sites", "conditions": "protein concentration: 200 nM; construct: GST-full length", "method_in_brief": "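Full-length yeast transcription factors or their DNA-binding domains, GST-tagged and expressed with PURExpress, were applied at about 100-200 nM to universal all-10-mer Agilent arrays. These arrays had been made double-stranded by primer extension on fresh or once-stripped slides. Detection used fluorescent anti-GST, normalisation used masliner, and E-scores for ungapped eight-base words pooled with reverse complements came from the Universal PBM Analysis Suite.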", "values": [{"sequence": "GTGTCTAA", "PBM E-score": 0.065}, {"sequence": "ACGACTTG", "PBM E-score": -0.058}, {"sequence": "GTCCTATA", "PBM E-score": -0.0251}, {"sequence": "CATGAAGA", "PBM E-score": 0.0179}, {"sequence": "AAGGGAGT", "PBM E-score": -0.101}, {"sequence": "AACGTGGA", "PBM E-score": 0.237}, {"sequence": "CGACGATA", "PBM E-score": 0.0441}, {"sequence": "AAATGCAA", "PBM E-score": 0.0414}, {"sequence": "AGACGAAG", "PBM E-score": -0.101}, {"sequence": "AGTTCTGA", "PBM E-score": 0.102}, {"sequence": "CGCGTATC", "PBM E-score": 0.232}, {"sequence": "AGGTAATC", "PBM E-score": 0.163}, {"sequence": "ATTCCGGG", "PBM E-score": -0.266}, {"sequence": "ATAAGACA", "PBM E-score": 0.183}, {"sequence": "TGGGAACA", "PBM E-score": -0.247}, {"sequence": "CAACTTCA", "PBM E-score": 0.127}, {"sequence": "AAAGGGCA", "PBM E-score": -0.146}, {"sequence": "CTGCTTAC", "PBM E-score": 0.0487}, {"sequence": "AGCCCACG", "PBM E-score": 0.209}, {"sequence": "ACAACAGC", "PBM E-score": 0.00163}, {"sequence": "ATCAATCC", "PBM E-score": 0.125}, {"sequence": "AAATATTA", "PBM E-score": 0.295}, {"sequence": "ACGAGGTA", "PBM E-score": -0.0524}, {"sequence": "CCGTCGAA", "PBM E-score": -0.0246}, {"sequence": "CCCCATAG", "PBM E-score": -0.244}, {"sequence": "GTGGACAC", "PBM E-score": -0.0425}, {"sequence": "CCGATTGC", "PBM E-score": 0.0694}, {"sequence": "CATATTTC", "PBM E-score": 0.12}, {"sequence": "CGTTCCCA", "PBM E-score": -0.0769}, {"sequence": "CAACAATG", "PBM E-score": 0.0609}, {"sequence": "ATAGTCCA", "PBM E-score": -0.117}, {"sequence": "AGCATCAG", "PBM E-score": -0.181}, {"sequence": "CTTGAAAG", "PBM E-score": -0.0877}, {"sequence": "CTATAGGC", "PBM E-score": -0.178}, {"sequence": "GCGCGAGC", "PBM E-score": -0.167}, {"sequence": "CCACCGAG", "PBM E-score": -0.351}, {"sequence": "ACTTGTAT", "PBM E-score": 0.0674}, {"sequence": "GGGCAACC", "PBM E-score": -0.211}, {"sequence": "ACACTATG", "PBM E-score": 0.00221}, {"sequence": "AGCTCAAG", "PBM E-score": -0.186}, {"sequence": "CCGCAAAC", "PBM E-score": -0.0896}, {"sequence": "TACCCAAA", "PBM E-score": -0.0306}, {"sequence": "GGGGTGAC", "PBM E-score": -0.0461}, {"sequence": "CTGAGTTC", "PBM E-score": -0.0185}, {"sequence": "CTCACTCC", "PBM E-score": -0.0365}, {"sequence": "GCACGCGA", "PBM E-score": 0.114}, {"sequence": "CTAAGTCC", "PBM E-score": -0.254}, {"sequence": "CCCTGGAA", "PBM E-score": -0.367}, {"sequence": "AGCACGGA", "PBM E-score": -0.221}, {"sequence": "CGTTGTCC", "PBM E-score": 0.187}, {"sequence": "ACACACCC", "PBM E-score": -0.0953}, {"sequence": "TGGATAAA", "PBM E-score": 0.00546}, {"sequence": "ACGTATCC", "PBM E-score": 0.389}, {"sequence": "CCCGGGAC", "PBM E-score": -0.359}, {"sequence": "TCACAAAA", "PBM E-score": 0.156}, {"sequence": "CTTGTGTC", "PBM E-score": -0.0889}, {"sequence": "TCCATAGA", "PBM E-score": -0.173}, {"sequence": "GTACACTA", "PBM E-score": 0.0293}, {"sequence": "CCTGCCGA", "PBM E-score": -0.329}, {"sequence": "CTATGGCC", "PBM E-score": -0.29}, {"sequence": "CCCGAGGC", "PBM E-score": -0.315}, {"sequence": "ATGCCAAG", "PBM E-score": -0.0588}, {"sequence": "CCAACTCG", "PBM E-score": 0.076}, {"sequence": "ACGGGTTA", "PBM E-score": -0.137}, {"sequence": "TAGTGTGA", "PBM E-score": 0.116}, {"sequence": "AGTCGCGA", "PBM E-score": 0.0367}, {"sequence": "AGCTATCC", "PBM E-score": -0.323}, {"sequence": "CTACACGC", "PBM E-score": -0.00687}, {"sequence": "ACAAATGG", "PBM E-score": 0.0773}, {"sequence": "CTGTACTA", "PBM E-score": 0.111}, {"sequence": "AAGTTACA", "PBM E-score": -0.0102}, {"sequence": "CACATGGC", "PBM E-score": 0.0845}, {"sequence": "GATTAAAA", "PBM E-score": 0.202}, {"sequence": "AGAAGACC", "PBM E-score": -0.096}, {"sequence": "AGGTTCAT", "PBM E-score": -0.265}, {"sequence": "CGTAACTC", "PBM E-score": 0.331}, {"sequence": "CCGCGTGC", "PBM E-score": -0.0654}, {"sequence": "CATACCAC", "PBM E-score": 0.0883}, {"sequence": "AACATTCA", "PBM E-score": -0.148}, {"sequence": "GGCGGCCC", "PBM E-score": -0.352}, {"sequence": "CCATTAGG", "PBM E-score": -0.161}, {"sequence": "GTCGTTGA", "PBM E-score": 0.158}, {"sequence": "CGAACGAG", "PBM E-score": -0.0222}, {"sequence": "CGAGAGAG", "PBM E-score": -0.198}, {"sequence": "AATACGAC", "PBM E-score": 0.22}, {"sequence": "AGCGGCTC", "PBM E-score": -0.202}, {"sequence": "AATCTGGA", "PBM E-score": -0.0269}, {"sequence": "CCGGATAC", "PBM E-score": -0.0842}, {"sequence": "AATACATC", "PBM E-score": 0.249}, {"sequence": "GGCCATAA", "PBM E-score": -0.168}, {"sequence": "ACTTACTA", "PBM E-score": 0.0335}, {"sequence": "ATACCCCA", "PBM E-score": -0.0418}, {"sequence": "CTTTCTAA", "PBM E-score": 0.149}, {"sequence": "AAATCCCT", "PBM E-score": -0.139}, {"sequence": "ACCCCACC", "PBM E-score": 0.132}, {"sequence": "CAAGATCA", "PBM E-score": -0.117}, {"sequence": "AGGATCAA", "PBM E-score": -0.0197}, {"sequence": "ATAATCTG", "PBM E-score": 0.0638}, {"sequence": "CGACTCAG", "PBM E-score": -0.199}, {"sequence": "GCAAGGTA", "PBM E-score": 0.0147}, {"sequence": "CCTATGAA", "PBM E-score": -0.0551}, {"sequence": "GGATACAA", "PBM E-score": -0.0221}, {"sequence": "CAGCCCCA", "PBM E-score": -0.217}, {"sequence": "AGACATTA", "PBM E-score": -0.0173}, {"sequence": "GAGTCTCA", "PBM E-score": -0.343}, {"sequence": "TGGGGACA", "PBM E-score": -0.0788}, {"sequence": "CAAAGGCG", "PBM E-score": -0.0438}, {"sequence": "ATTGTGAA", "PBM E-score": 0.085}, {"sequence": "CGGACCGA", "PBM E-score": -0.16}, {"sequence": "CCTTAAAC", "PBM E-score": -0.105}]}]}
